Our source for the cytotoxicity call and growth inhibition call values is the antibiotic and cytotoxicity screens of Wong et al. (2023).

The list shows a part of the results.

The test system of one assay is HSkMC. The assay is described as follows: cytotoxicity call (relative viability < 0.9). Conditions: 10 µM.
The next assay deals with HepG2. The assay is described as follows: cytotoxicity call (relative viability < 0.9). Conditions: 10 µM.
For the next assay, the system named is S. aureus RN4220. The assay is described as follows: growth inhibition call (relative growth <= 0.2). As to conditions: 50 µM.

Consider `COc1ccc(S(=O)(=O)N(C)C[C@@H]2Oc3ccc(NC(=O)CCN4CCOCC4)cc3CC(=O)N([C@@H](C)CO)C[C@@H]2C)cc1`, for which the cytotoxicity call in the assay with HSkMC and in the assay with HepG2 was “inactive” in each case. Besides, the growth inhibition call with S. aureus RN4220 was “inactive”.
On to `COc1ccc(S(=O)(=O)Nc2ccc3c(c2)C(=O)N([C@H](C)CO)C[C@@H](C)[C@@H](CN(C)C(=O)Nc2c(C)noc2C)OCCCC[C@@H](C)O3)cc1`, for which the cytotoxicity call in the assay on HSkMC and in the assay with HepG2 was “inactive” throughout. In the assay with S. aureus RN4220, the growth inhibition call was “inactive”.
In the case of `C[C@H](CO)N1C[C@H](C)[C@H](CN(C)S(C)(=O)=O)Oc2ccc(NS(=O)(=O)c3ccc(F)cc3)cc2CC1=O`, the cytotoxicity call in the assay on HSkMC and in the assay on HepG2 was “inactive” each time. In addition, in the assay with S. aureus RN4220, the growth inhibition call is “inactive”.
In the case of `Cc1noc(C)c1S(=O)(=O)N(C)C[C@@H]1Oc2ccc(NS(=O)(=O)c3ccc(F)cc3)cc2CC(=O)N([C@H](C)CO)C[C@H]1C`, the cytotoxicity call with HSkMC and in the assay with HepG2 was “inactive” each time. Further, the growth inhibition call with S. aureus RN4220 was “inactive”.
Turning to `C[C@@H]1CN([C@H](C)CO)S(=O)(=O)c2ccc(C#CC3CC3)cc2O[C@H]1CN(C)Cc1ccc(F)cc1`, the cytotoxicity call in the assay on HSkMC and with HepG2 was “active” each time. For the same compound, the growth inhibition call with S. aureus RN4220 was “inactive”.
Take `C[C@@H]1CN([C@H](C)CO)S(=O)(=O)c2ccc(C#C[C@@H](C)O)cc2O[C@H]1CN(C)C(=O)Nc1ccccc1`: the cytotoxicity call in the assay with HSkMC and in the assay on HepG2 was “inactive” throughout. Further, the growth inhibition call in the assay with S. aureus RN4220 is “inactive”.
As for `CCNC(=O)C[C@@H]1C=C[C@H](NC(=O)C2CC2)[C@H](CO)O1`, the cytotoxicity call with HSkMC and in the assay with HepG2 was “inactive” each time. Further, the growth inhibition call in the assay on S. aureus RN4220 is “inactive”.
In the case of `COc1ccc(NC(=O)N(C)C[C@@H]2OCCCC[C@H](C)Oc3ccc(NC(=O)Cc4ccccc4)cc3C(=O)N([C@H](C)CO)C[C@H]2C)cc1`, the cytotoxicity call in the assay on HSkMC and in the assay on HepG2 was “inactive” in each case. Moreover, in the assay with S. aureus RN4220, the growth inhibition call is “inactive”.
On to `C[C@H]1CN([C@@H](C)CO)C(=O)c2cccc(NC(=O)Nc3ccc(C(F)(F)F)cc3)c2O[C@@H]1CN(C)Cc1ccccc1`, for which the cytotoxicity call with HSkMC is “active”. For the same compound, in the assay on HepG2, the cytotoxicity call is “inactive”. Besides, the growth inhibition call with S. aureus RN4220 was “inactive”.
Take `O=C(NCC(F)(F)F)[C@@H]1c2ccccc2C(=O)N(CC23CC4CC(CC(C4)C2)C3)[C@H]1c1ccc(CO)cc1`: the cytotoxicity call in the assay with HSkMC and with HepG2 was “inactive” in each case. For the same compound, in the assay with S. aureus RN4220, the growth inhibition call is “inactive”.
Turning to `C[C@H]1CN([C@@H](C)CO)C(=O)c2cccc(NC(=O)Nc3cccc4ccccc34)c2O[C@@H]1CN(C)C(=O)Nc1ccc2c(c1)OCO2`, the cytotoxicity call with HSkMC and with HepG2 was “inactive” throughout. Besides, in the assay with S. aureus RN4220, the growth inhibition call was “inactive”.
Consider `C[C@@H]1CN([C@H](C)CO)C(=O)c2cccc(NC(=O)Nc3ccc4c(c3)OCO4)c2O[C@@H]1CN(C)C(=O)Nc1ccc(C(F)(F)F)cc1`, for which the cytotoxicity call in the assay on HSkMC and in the assay on HepG2 was “inactive” in each case. For the same compound, the growth inhibition call in the assay with S. aureus RN4220 is “inactive”.
Regarding `COc1cccc(CN2C[C@@H](C)[C@H](OC)CN(C)C(=O)c3ccc(NS(=O)(=O)c4cn(C)cn4)cc3OC[C@H]2C)c1`, the cytotoxicity call in the assay on HSkMC and in the assay on HepG2 was “inactive” each time. Moreover, the growth inhibition call with S. aureus RN4220 is “inactive”.
In the case of `COc1ccccc1C(=O)Nc1ccc2c(c1)C(=O)N(C)[C@@H]1CC[C@H](CC(=O)NCc3ccc(Cl)c(Cl)c3)O[C@@H]1CO2`, the cytotoxicity call in the assay on HSkMC and in the assay on HepG2 was “inactive” throughout. Moreover, the growth inhibition call with S. aureus RN4220 is “inactive”.
Turning to `COc1ccc(CN(C)C[C@@H]2OCCCC[C@@H](C)Oc3ccc(NC(=O)NC4CCCCC4)cc3C(=O)N([C@H](C)CO)C[C@@H]2C)cc1`, the cytotoxicity call with HSkMC and in the assay with HepG2 was “inactive” each time. In addition, in the assay on S. aureus RN4220, the growth inhibition call is “inactive”.
For `C=CCOC(=O)O[C@H]1[C@@H](OC)O[C@H](COC(=O)NCCCCCC(=O)NO)[C@H]2OC(=O)[C@@H](Cc3cccc(Br)c3)C/C=C/C[C@H](Cc3ccccc3)C(=O)O[C@H]12`, the cytotoxicity call in the assay with HSkMC and in the assay with HepG2 was “inactive” in each case. For the same compound, the growth inhibition call in the assay on S. aureus RN4220 was “inactive”.
As to `CC(C)(C)[S@@](=O)N1Cc2cc(C(=O)N3CCCCC3)nc(-c3cccc(-c4ccc(C#N)cc4)c3)c2[C@H]1CCO`, the cytotoxicity call with HSkMC and in the assay on HepG2 was “inactive” in each case. Moreover, the growth inhibition call with S. aureus RN4220 is “inactive”.
Turning to `COC(=O)[C@@H](Cc1ccc(-n2cc(COc3ccccc3/C=C(C)/C=C/C(=O)NO)nn2)cc1)N1CC2=CCCC=C[C@@H]2[C@H]1[C@H](O)Cc1ccccc1`, the cytotoxicity call in the assay on HSkMC was “inactive”. Besides, the cytotoxicity call in the assay on HepG2 is “active”. Besides, the growth inhibition call with S. aureus RN4220 is “inactive”.
In the case of `C[C@@H]1CN([C@@H](C)CO)C(=O)c2cc(NC(=O)Nc3ccccc3)ccc2O[C@@H](C)CCCCO[C@@H]1CN(C)S(=O)(=O)c1cccs1`, the cytotoxicity call with HSkMC and in the assay on HepG2 was “inactive” each time. In addition, the growth inhibition call in the assay on S. aureus RN4220 was “inactive”.
On to `C[C@@H]1CN([C@@H](C)CO)S(=O)(=O)c2ccc(C#C[C@@H](C)O)cc2O[C@H]1CN(C)C(=O)CN(C)C`, for which the cytotoxicity call in the assay on HSkMC and with HepG2 was “inactive” each time. Moreover, the growth inhibition call in the assay on S. aureus RN4220 is “inactive”.
Take `C[C@H](CO)N1C[C@H](C)[C@@H](CN(C)C)OCCCC[C@H](C)Oc2ccc(NC(=O)Nc3cccc4ccccc34)cc2C1=O`: the cytotoxicity call with HSkMC and in the assay on HepG2 was “inactive” throughout. The growth inhibition call in the assay with S. aureus RN4220 was “inactive”.
`CC(=O)n1cc([C@H]2C=C(C(=O)N3CCN(Cc4ccccc4)CC3)O[C@@H](OCc3ccc(CO)cc3)C2)c2ccccc21`: the cytotoxicity call in the assay on HSkMC and with HepG2 was “inactive” in each case. Also, the growth inhibition call in the assay on S. aureus RN4220 was “inactive”.
For `CC(C)Oc1cccc(CC(=O)N2CCC[C@](CC[N+]34CCC(c5ccccc5)(CC3)CC4)(c3ccc(Cl)c(Cl)c3)C2)c1`, the cytotoxicity call in the assay with HSkMC and with HepG2 was “inactive” throughout. Besides, the growth inhibition call with S. aureus RN4220 is “active”.
Regarding `C[C@@H]1CN([C@@H](C)CO)S(=O)(=O)c2ccc(-c3ccc(C(=O)N(C)C)cc3)cc2O[C@H]1CN(C)C(=O)C1CC1`, the cytotoxicity call in the assay on HSkMC and in the assay with HepG2 was “inactive” throughout. The growth inhibition call in the assay on S. aureus RN4220 was “inactive”.
On to `C[C@H]1CN([C@@H](C)CO)S(=O)(=O)c2ccc(Br)cc2O[C@H]1CN(C)C(=O)C1CCCCC1`, for which the cytotoxicity call in the assay on HSkMC and in the assay on HepG2 was “inactive” throughout. For the same compound, the growth inhibition call with S. aureus RN4220 was “inactive”.
`C[C@@H]1COCCC(=O)N1`: the cytotoxicity call in the assay on HSkMC (human skeletal muscle cells) and in the assay on HepG2 was “inactive” each time. Also, in the assay with S. aureus RN4220, the growth inhibition call was “inactive”.
For `COCC(=O)N[C@@H]1C=C[C@@H](CC(=O)N2CCCCC2)O[C@@H]1CO`, the cytotoxicity call in the assay with HSkMC and in the assay with HepG2 was “inactive” throughout. Besides, in the assay with S. aureus RN4220, the growth inhibition call was “inactive”.
